± gives the standard deviation of the averaged measurements. This is one part of the list.
system: PfAP2-G AP2 domain (GST-tagged); assay: gcPBM binding intensity (ln(normalized median fluorescence intensity)); higher = stronger DNA binding
How it was run: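 Probes on an Agilent 4 × 180k array were primer-extended, double-stranded and 36 bp long, taken from intergenic genomic regions, with negative controls added. GST-tagged P. falciparum DNA-binding domains from E. coli, about 25 μg on average, were applied to the array for 1 h in 1× PBS containing 1% milk, 0.2 mg/ml BSA, 0.5% salmon testes DNA and 0.03% Triton X-100. Binding intensity, obtained after Alexa488 anti-GST antibody detection and a 488 nm scan, is the highest Masliner-normalised natural-log median intensity across replicate spots of either probe orientation.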

| Sequence | gcPBM binding intensity (ln) |
| --- | --- |
| TATATCTGTTTATATTGTACACATATATATATATAT [XGTACX_site714] | 11.4 ± 0.93 |
| AAATATATTATATCATATATTAAAGCATATATTAAA [CACACA_negctrl_site1624] | 9.46 ± 0.23 |
| GATAATTTTTTTCTCACACACAAATATTTTAATCAT [CACACA_site3666] | 10.02 ± 0.092 |
| TAATAATAGTACTGACATCGAAATATTATTAAAAAT [CACACA_negctrl_site255] | 10.8 ± 0.71 |
| ATATTTTGGGGACTTTTTAAAAAAGAAGTATTAAAA [CACACA_negctrl_site1228] | 10.9 ± 0.61 |
| TGGCAAAATAGGCACACACACATATACCTATAGATT [CACACA_site7168] | 10.2 ± 0.27 |
| GTAAATATATAAACATGTACATATATAAATATATAA [XGTACX_site7262] | 11.2 ± 0.84 |
| TATAAGAATAAAAAGGGTACATAAAATAATAATATA [XGTACX_site2355] | 11.3 ± 0.73 |
| GTTTACATAGATAACTGTACGCAATGATATTAGACA [XGTACX_site1320] | 11.5 ± 1 |
| CAAAAAAAATAAAACACACACACAAAAAAATAAAAA [CACACA_site466] | 10 ± 0.042 |
| AAAAAAAAAAAACACACACACACACCGACACATACA [CACACA_site5576] | 10.3 ± 0.36 |
| AGGTAAAAATGGTAAGTGCATTAATGATAAAAAATG | 10.3 ± 0.19 |
| GAATATTCACATACTTGTACATATATATATATATAT [XGTACX_site7302] | 11.1 ± 0.65 |
| ATATTTCTGTGTGGATGTACATTATTAGCAGGCTTT [XGTACX_site6496] | 11 ± 0.63 |
| AAAATATATACACAAACATGCATATAATAAATAAAT [TGCATGCA_site711] | 9.895 ± 0.064 |
| ATAATTCAAAAAAACACACAAATTACAAAATAAACT [CACACA_site6264] | 9.965 ± 0.007 |
| CAAAATAATAATAAAAGTACTAACATATTTATGAAA [XGTACX_site6078] | 11.1 ± 0.68 |
| ATATAAACAGAAAATAGTACTTTATATTGAAAAAAA [XGTACX_site7183] | 10.9 ± 0.59 |
| GATGATACAAAGTAATGTACATAAATACACATATTG [XGTACX_site3177] | 10.9 ± 0.47 |
| AAATTTGATATAAAAAGTACAAAATGTTCCTCAGCT [XGTACX_site809] | 11.1 ± 0.52 |
| GTTTACATTAAAAATTGTACTCTGTATGAATAATAT [XGTACX_site80] | 11 ± 0.78 |
| CTTAAAAAAACCTTAACACACATAAACTCTAATTTA [CACACA_site7430] | 9.84 ± 0.11 |
| ATTTCATTTTATAAGTGTACAATAAAAAAAAAAAAA [XGTACX_site8677] | 11.3 ± 1 |
| CCATAAGATATATGTAGTACATATTATATATATATA [XGTACX_site2104] | 11.6 ± 0.95 |
| TATACACATATATAAACACACAAAAAAAAAAAAAAA [CACACA_site7041] | 9.78 ± 0.53 |
